Measurements: PubChem BioAssay AID1030 (National Center for Advancing Translational Sciences (NCATS), 2008)
Out of some 220,000 compounds screened, about 16,000 (7.3%) were called active. Inconclusive means that the source gave no clear call. Such entries were picked first, then a sample of the others. The call rests on the fitted dose curve; in most records, active means well fitted inhibition curve with a large enough effect (not every such curve was filed as active); inconclusive means small, poorly fitted or top-dose-only effect, or another doubt; inactive means no such curve, though single readings can be large or run the other way. No potency is given beside an inconclusive call; the fits are too rough. Some compounds were tested as several samples or in several runs, with calls that do not always agree.

The compounds below were run against Aldehyde dehydrogenase 1A1 (Homo sapiens) (UniProt P00352) (assay: qHTS Assay for Inhibitors of Aldehyde Dehydrogenase 1 (ALDH1A1)). Conditions: Purified ALDH1A1, NADH fluorescence, propionaldehyde substrate; series mostly up to 75.3 µM; activity, negative = inhibition: at the top concentration.
Sequence of UniProt P00352 (P00352 whole entry, looked up): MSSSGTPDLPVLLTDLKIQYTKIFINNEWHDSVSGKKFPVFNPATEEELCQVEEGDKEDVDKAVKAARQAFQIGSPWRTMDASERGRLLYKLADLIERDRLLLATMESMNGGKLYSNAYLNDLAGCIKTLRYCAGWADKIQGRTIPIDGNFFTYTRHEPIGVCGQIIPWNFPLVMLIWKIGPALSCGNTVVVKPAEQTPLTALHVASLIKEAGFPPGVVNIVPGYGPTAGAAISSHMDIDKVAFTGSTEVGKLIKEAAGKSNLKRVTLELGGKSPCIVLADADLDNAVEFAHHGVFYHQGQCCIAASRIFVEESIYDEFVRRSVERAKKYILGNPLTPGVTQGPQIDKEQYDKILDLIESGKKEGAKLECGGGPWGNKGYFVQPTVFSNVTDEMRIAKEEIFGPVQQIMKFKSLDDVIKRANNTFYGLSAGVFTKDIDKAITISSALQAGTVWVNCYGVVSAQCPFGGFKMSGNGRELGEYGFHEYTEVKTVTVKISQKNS
Potency means the concentration at half of the fitted maximal effect; tags describe the fitted curve by direction and shape.
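Wherever activity, negative = inhibition is given: plate controls were no enzyme wells and a reference inhibitor.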

SMILES | Potency | activity, negative = inhibition
C=CC(C1=CC(=O)C(OC)=CC1=O)c1ccc(OC)cc1 (centres undefined) | inconclusive [inhibitor, single point] | 
CCN(CC)C(=O)COc1ccc2c(c1)C(=O)CC(C)(C)O2 | inconclusive [inhibitor, partial curve] | 
O=C(Nc1ccccc1N1CCCCC1)c1ccc(Cl)c([N+](=O)[O-])c1 |  | inactive: -2.83%
CC(NC(=O)COc1ccccc1)C(c1ccccc1)N1CCN(C)CC1 (centres undefined) | inconclusive [inhibitor, single point] | 
O=C(NC1CCCc2ccccc21)C1CCN(S(=O)(=O)c2ccccc2F)CC1 (centres undefined) | inconclusive [inhibitor, single point] | 
O/N=C1/CCCSc2ccccc21 |  | inactive: 13.8%
CC(C)c1ccc(NC(=O)COc2ccc(S(=O)(=O)N3CCOCC3)cc2)cc1 | inconclusive [inhibitor, single point] | 
O=C(O)c1ccccc1C(=O)NNc1ccc(Cl)cc1Cl | active: 25.1 µM | 
CC(OC(=O)Cc1n[nH]c(=O)c2ccccc12)C(=O)Nc1cccc([N+](=O)[O-])c1 (centres undefined) |  | inactive: 3.72%
O=Cc1ccc2oc3nc4n(c(=O)c3c(=O)c2c1)CCCS4 | active: 2.51 µM | 
O=C(CCOc1ccccc1)Nc1ccc([N+](=O)[O-])cc1 |  | inactive: -0.676%
COc1ccc(/C=N/NC(=O)c2ccc(Br)cc2)cc1Cn1cc(Cl)cn1 | inconclusive [inhibitor, partial curve] | 
Cc1cccc(OCCCN2C(=O)C(=O)c3cc(C)ccc32)c1 | active: 0.1 µM | 
CC1(C)CC(=O)N(CC(=O)NCc2ccccc2)c2ccccc2S1(=O)=O |  | inactive: 10.7%
CCc1ccc(OCC(=O)N/N=C\c2ccco2)c([N+](=O)[O-])c1 |  | inactive: -10.7%
Nc1ccc(Nc2ccccc2)cc1 | inconclusive [inhibitor, partial curve] | 
CCC(C)NS(=O)(=O)c1cccs1 (centres undefined) |  | inactive: 1.22%
CN(C)c1ccnc(C(=O)O)c1 | inconclusive [inhibitor, partial curve] | 
COCCNc1nc(N)c([N+](=O)[O-])c(NCC2CCCO2)n1 (centres undefined) | inconclusive [inhibitor, single point] | 
CCOC(=O)C1CCCN(C(=S)Nc2ccc(C)cc2C)C1 (centres undefined) |  | inactive: 5.93%
CC(=O)Oc1oc(-c2ccccc2)nc1/C=N/c1ccccn1 | inconclusive [inhibitor, single point] | 
Cc1ccc2nc(-c3cccnc3)cc(C(=O)Nc3ccc(F)cc3C)c2c1 |  | inactive: 9.27%
Cc1oc(-c2ccccc2F)nc1CS(=O)(=O)CC(=O)NCc1ccco1 | inconclusive [inhibitor, single point] | 
COc1ccccc1C(=O)Oc1ccc2c(c1)O/C(=C\c1ccncc1)C2=O | inconclusive [inhibitor, partial curve] | 
CCOC(=O)Cc1cc(=O)n2[nH]c(-c3ccccc3)c(-c3ccccc3)c2n1 | inconclusive [inhibitor, partial curve] | 

SMILES | Potency | activity, negative = inhibition
CCOc1ccc(NC(=O)C2CCCN(S(=O)(=O)c3c(C)n[nH]c3C)C2)cc1 (centres undefined) | inconclusive [inhibitor, single point] | 
Cc1cccn2c(=O)c3cc(C#N)c(=O)n(CC4CCCO4)c3nc12 (centres undefined) | inconclusive [inhibitor, partial curve] | 
CCC(=O)Nc1cccc(-c2csc(-c3ccccc3)n2)c1 | inconclusive [inhibitor, single point] | 
CC12CC3(O)OC(O1)C1(COC(=O)c4ccccc4)[C@@H]3CC21O[C@@H]1O[C@H](CO)[C@@H](O)[C@H](O)[C@H]1O |  | inactive: 18.8%
O=C(C1CCCO1)N1CCN(C(=S)Nc2ccccc2Cl)CC1 (centres undefined) | inconclusive [inhibitor, single point] | 
CC(C)N1CCC2(CC1)C(C#N)=C(N)NC(S)=C2C#N | inconclusive [inhibitor, single point] | 
CCn1c(SC(C)C(=O)O)nnc1-c1cccnc1 (centres undefined) | inconclusive [inhibitor, single point] | 
Cc1nnc(SCC(=O)N2CCC(Cc3ccccc3)CC2)n(N)c1=O | inconclusive [inhibitor, single point] | 
CN=C(C)/C(C(=O)OC)=C(/O)c1ccc(Cl)cc1Cl |  | inactive: -1.57%
COc1ccc2cc(CN(CC3COCCO3)S(=O)(=O)c3ccc(Cl)cc3)c(=O)[nH]c2c1 (centres undefined) | inconclusive [inhibitor, partial curve] | 
C=CCNC(=S)Nc1ccc(Br)cc1F |  | inactive: 2.13%
COc1ccccc1NC(=O)C1=C(C)Nc2ncnn2C1c1ccc(C)o1 (centres undefined) | inconclusive [inhibitor, single point] | 
Cc1ccc2cc(C)c(NCCO)nc2c1 | inconclusive [inhibitor, single point] | 
COc1ccc(-c2cc(-c3ccc(Br)cc3)nc3ncnn23)cc1OC | inconclusive [inhibitor, single point] | 
COc1ccc(-c2nc3cnc(Oc4cccc(Cl)c4)nc3n(C[C@H]3CCCO3)c2=O)cc1 | inconclusive [inhibitor, partial curve] | 
COc1ccc(-c2nc3cnc(OC)nc3n(Cc3ccc(F)cc3)c2=O)cc1 | inconclusive [inhibitor, full curve] | 
CCc1ccc(-n2c(SCC(=O)c3ccc4c(c3)NC(=O)CO4)nc3ccccc3c2=O)cc1 | inconclusive [inhibitor, single point] | 
Cc1cc(O)c(/C=N/c2ccccn2)c(=O)o1 |  | inactive: -14.5%
CCC(=O)OCc1cc2cccc(C)c2[nH]c1=O | inconclusive [inhibitor, partial curve] | 
Oc1c(I)cc(Cl)c2cccnc12 | active: 25.1 µM | 
O=C(CNC(=S)N(CCCN1CCOCC1)Cc1cccs1)NC1CCCCCCC1 | inconclusive [inhibitor, partial curve] | 
CC(C)CCNC(=S)Nc1ccccn1 | active: 6.31 µM | 
CCCn1c(O)c(N=NC(=O)c2ccco2)c2ccccc21 | inconclusive [inhibitor, single point] | 
CCCN1C(=O)/C(=C/c2ccc(N3CCCC3)c(C)c2)NC1=S | active: 0.224 µM | 
COc1ccc2c(=O)cc(-c3ccncc3)oc2c1OC |  | inactive: 12.9% [at 13.5 µM]

SMILES | Potency | activity, negative = inhibition
O=C(Oc1ccccc1)N1CCC2(CC1)CN(c1ncccn1)C2 | inconclusive [inhibitor, partial curve] | 
CCCCNC(=O)Oc1cccc(N2CCCC2=O)c1 | inconclusive [inhibitor, single point] | 
O=C(CCCOc1ccc(Cl)cc1)N1CCCCCC1 | active: 7.94 µM | 
CCCCn1c2nc3ccccc3nc2c2c(=O)n(-c3ccccc3)cnc21 | inconclusive [inhibitor, partial curve] | 
O=P(c1ccccc1)(c1ccccc1)C1CCCO1 (centres undefined) |  | inactive: 11.5%
CSc1nccc(-c2nn(-c3ccc(C)cc3)ccc2=O)n1 | inconclusive [inhibitor, partial curve, poor fit] | 
COC(=O)CNC(=O)C(Cc1ccccc1)NS(=O)(=O)c1ccc2c(c1)c(=O)n(C)c(=O)n2C (centres undefined) |  | inactive: -6.27%
CCOc1ccc(Nc2nc3ccccc3n3nnnc23)cc1 |  | inactive: 2.93%
Cc1cc(NC(=O)CSc2ccc3nnc(-c4ccc(F)cc4)n3n2)no1 | inconclusive [inhibitor, single point] | 
O=[N+]([O-])c1ccccc1OCCOCCOc1cccc2cccnc12 | inconclusive [inhibitor, partial curve] | 
C=C(C)COc1ccc(-c2[nH]ncc2-c2ccc(Br)cc2)c(O)c1 |  | inactive: -10.9%
O=C(CSc1nc2ccc([N+](=O)[O-])cc2[nH]1)NC1CCCC1 | inconclusive [inhibitor, single point] | 
C=CCN1C(=O)CN=C1Nc1cc(C)ccc1C | active: 3.55 µM | 
COc1cccc(C(=O)COC(=O)C(C)N2C(=O)C3C4C=CC(C4)C3C2=O)c1 (centres undefined) | inconclusive [inhibitor, partial curve] | 
COc1ccc(CCCc2n[nH]c(=S)o2)c(C)c1 | inconclusive [inhibitor, single point] | 
CC1(C)CC(=O)C(C=NCCCn2ccnc2)=C(O)C1 | inconclusive [inhibitor, single point] | 
CC(NC(=O)OC(C)(C)C)C(=O)NC(CCC(=O)OCc1ccccc1)C(N)=O (centres undefined) |  | inactive: 1.43%
CC1=C(C(=O)N2CCCCC2)C2(CCC(C)CC2)OC1=O (centres undefined) | inconclusive [inhibitor, single point] | 
Cn1cc(CN2CCc3sccc3C2)c(-c2ccccc2F)n1 | inconclusive [inhibitor, single point] | 
O=C(NC1CCCCCC1)c1nnc(Cc2ccc(Cl)cc2)o1 | inconclusive [inhibitor, single point] | 
Cc1cc(C(F)(F)F)n(-c2nc(C(=O)N/N=C/c3ccc(F)cc3)cs2)n1 | inconclusive [inhibitor, single point] | 
CNC(=O)NC(=S)NC(=O)c1cccc(Cl)c1 | inconclusive [inhibitor, single point] | 
CCOC(=O)c1ccc(CNC(=O)Cn2nnc(-c3ccccc3F)n2)o1 | inconclusive [inhibitor, single point] | 
O=[N+]([O-])c1cc(Cl)ccc1NCCNS(=O)(=O)c1ccccc1 | inconclusive [inhibitor, partial curve] | 
